These results are taken from ChEMBL document CHEMBL4888484, “Replenishing the malaria drug discovery pipeline: Screening and hit evaluation of the MMV Hit Generation Library 1 (HGL1) against asexual blood stage Plasmodium falciparum ,using a nano luciferase reporter read-out” (2022).

In all, about 150,000 compounds went through this assay and about 540 (0.36%) showed an effect of 50% or more. This is one part of the list.

This test has as its system Plasmodium falciparum. The test is described as follows: Primary screen in NF54 nanoGlo assay, in single point, at 2uM, 72h; a lower Z score goes with more inhibition. It is filed as functional, Erythrocyte. Particulars: timepoint 72 hour.
Take `N#Cc1cccc(-c2ccc(=O)n3c2[C@@H]2C[C@@H](CN(S(=O)(=O)c4ccccc4C#N)C2)C3)c1`: the % Inhibition (in general, the drop in the measured response relative to a control, in per cent) is -1% and the Z score was found to be 0.15.

In the case of `CC[C@H]1OCC[C@@H]1C(=O)N1CCn2c(CC3CC3)nnc2C1`, the “% Inhibition” value was 3% and the Z score is given as -0.34.

As to `CC(=O)Nc1ccn2ncc(C(=O)N3CCCCC3)c2c1`, the “% Inhibition” value is given as -6% and the Z score turned out to be 0.93.

Take `C=C1CC(C)(c2noc(-c3cc(C)[nH]n3)n2)C1`: the “% Inhibition” value is on record as 1% and the Z score is on record as -0.19.

For `Cc1ccc(NC(=O)Cn2ccc3c(=O)[nH]ccc32)cc1`, the “% Inhibition” value is -32% and the Z score came out at 3.05.

For `Cc1ccc2oc(CN3CCN(S(=O)(=O)c4cc(C)c(C)cc4C)CC3)nc2c1`, the “% Inhibition” value is recorded as -20% and the Z score is listed as 1.73.

As for `COC[C@H](C)n1cnc(-c2ccccc2)c1-c1cc2c(cc1OC)OCO2`, the “% Inhibition” value is -10% and the Z score is listed as 1.02.

Regarding `c1cc(NCCC2CC3CCC2C3)nc(C2CC2)n1` (centres undefined), the “% Inhibition” value is on record as -9% and the Z score is on record as 1.04.

As to `N#C[C@@H]1CN(S(=O)(=O)CC2CCCCC2(F)F)C[C@H]1c1ccccc1` (some centres undefined), the “% Inhibition” value is recorded as -5% and the Z score is on record as 1.14.

Turning to `CCn1cc(-c2noc(CNC(=O)[C@H](C)n3cccn3)n2)cn1`, the “% Inhibition” value is -17% and the Z score was determined as 2.19.

As to `NC(=O)C[C@H]1CCCCN1c1ccnc(Cc2ccccc2)n1`, the “% Inhibition” value is -8% and the Z score was found to be 1.48.

As for `CCC[C@H]1CN(c2cnccn2)CCN1`, the “% Inhibition” value is -7% and the Z score was found to be 0.87.

Consider `CC(CN1CC[C@H](O)C1)c1cccc(Cl)c1` (some centres undefined), for which the “% Inhibition” value is -6% and the Z score was determined as 0.53.

In the case of `CCC(CC)N1C[C@@H](C(=O)Nc2nccnc2C2CC2)CC1=O`, the “% Inhibition” value is recorded as 3% and the Z score is given as -0.29.

For the compound `C=CCC1(C(=O)Nc2ccc3c(c2)CN(C)C(=O)N3)CCC1`, the “% Inhibition” value is 0% and the Z score worked out at 0.02.

As for `O=C(Nc1nccn1Cc1ccc(Br)cc1)C1CC(O)CN1` (centres undefined), the “% Inhibition” value is -5% and the Z score is listed as 0.64.

Consider `CCCC1(NC(=O)[C@H]2C[C@@](CC)(C(=O)O)N(C)[C@H]2c2ccc(OC)cc2)CC1`, for which the “% Inhibition” value is reported as -10% and the Z score stood at 1.31.

As to `CC1(C)C[C@@H]1C(=O)NCc1ccncc1`, the “% Inhibition” value was -8% and the Z score came out at 1.38.

Turning to `CC(C)Oc1ccc(N2C[C@@H](C(=O)N3CCCC3)CC2=O)cc1`, the “% Inhibition” value is reported as -23% and the Z score is recorded as 2.13.

`Cc1cc(C)n(CCCC(=O)N2CCC[C@H]2c2cn(C)nc2C)n1`: the “% Inhibition” value is on record as -10% and the Z score came to 1.35.

Regarding `N#Cc1c(F)cccc1CN1CCN(C(=O)Cn2cnnn2)CC1`, the “% Inhibition” value is 16% and the Z score is recorded as -2.08.

`O=C(NCc1ccc(-c2ccco2)o1)c1ccccc1`: the “% Inhibition” value is given as 4% and the Z score was -0.6.

`O=C(OCc1cncs1)c1cncc(F)c1`: the “% Inhibition” value is recorded as -6% and the Z score is 0.94.

In the case of `Cc1ccc(-n2ncc(C(=O)Nc3cccc(C(F)(F)F)c3)c2C2CCN(C(=O)OC(C)(C)C)CC2)c(C)c1`, the “% Inhibition” value is reported as 8% and the Z score is reported as -0.78.

Consider `Cc1nc(CN[C@H](c2c(F)cccc2F)C(F)(F)F)cs1`, for which the “% Inhibition” value was 2% and the Z score is -0.4.

Take `C[C@](O)(CN1CCc2ccccc2C1)c1ccc(S(C)(=O)=O)cc1`: the “% Inhibition” value is listed as -5% and the Z score is 0.48.

On to `CCC1CN2CCCCC2CN1C(=O)CNC(=O)c1ccccc1` (centres undefined), for which the “% Inhibition” value is -3% and the Z score came to 0.59.

Regarding `Cc1cccn2cc(CN(C)[C@H](c3ccccn3)C3CC3)nc12`, the “% Inhibition” value was 34% and the Z score is recorded as -5.4.

As to `CC(C)(CC(=O)Nc1ccc(Cc2nnc3ccccn23)cc1)C(=O)O`, the “% Inhibition” value was 0% and the Z score is on record as -0.04.

Regarding `O=C(Cn1cc2ccccc2n1)N[C@H]1CCN(C2CCOCC2)C1=O`, the “% Inhibition” value is 0% and the Z score is 0.05.

In the case of `O=C(NCC(=O)N1CCC(=C2CCC2)CC1)OCc1ccccc1`, the “% Inhibition” value was -14% and the Z score came to 2.17.

As for `CC1CCCC(NC(C(=O)NC2CC2)c2ccccc2)C1C` (centres undefined), the “% Inhibition” value is -5% and the Z score was 0.68.

As to `CCc1nc(C)sc1C(=O)N1CCC[C@H]1c1nc(C(C)C)no1`, the “% Inhibition” value is listed as -21% and the Z score stood at 1.96.

Regarding `CCN1CCN(C(=O)c2cccc(-c3ccccc3)n2)[C@H]2CS(=O)(=O)C[C@H]21`, the “% Inhibition” value is reported as -12% and the Z score came out at 1.08.

In the case of `Cc1ccccc1[C@@H](NCc1nccn1C)C1CCC(C)CC1` (some centres undefined), the “% Inhibition” value stood at 4% and the Z score is recorded as -0.53.

In the case of `O=C(c1cnc(O[C@H]2CCOC2)c(Cl)c1)N1CCc2ccccc21`, the “% Inhibition” value is reported as -5% and the Z score amounted to 1.01.

For `CN1CCN(c2nc(O)c3c(n2)NC(=O)C[C@H]3c2c(F)cccc2F)CC1`, the “% Inhibition” value worked out at 28% and the Z score is listed as -4.12.

As for `C[C@H](NCC1(C(N)=O)CCOCC1)c1cc2cc(Cl)ccc2o1`, the “% Inhibition” value was -1% and the Z score worked out at 0.13.

In the case of `CC(C)c1nsc(NCc2cccc(-c3nc(-c4ccncc4)no3)c2)n1`, the “% Inhibition” value is on record as -7% and the Z score was 1.01.

On to `CN1CCc2ccc(C(=O)Nc3ccc(-n4cncn4)nc3)cc21`, for which the “% Inhibition” value is on record as -1% and the Z score is listed as 0.26.

As for `Cc1noc(C)c1N(C)S(=O)(=O)c1ccc(Cl)s1`, the “% Inhibition” value is recorded as -7% and the Z score was 0.67.

`Cn1c(=O)cc(N(Cc2ccc(-n3cccn3)cc2)C2CC2)[nH]c1=O`: the “% Inhibition” value is -9% and the Z score worked out at 1.09.
